Data as given in patent publication US20210040533A1, “METHOD FOR IDENTIFYING TARGET GENE OF TEST SUBSTANCE” (DRUG GENOMICS, LTD., priority 2018, published 2021).
pIC50: −log10 of the molar value.

Legend:
[1] = test system: Tet strain having ERG11 gene as a candidate target gene; test: Determination of 50% inhibitory concentration of doxycycline on Tet strain (turbidity at OD 600); settings: Nakaseomyces glabratus, 20 h, read-out: IC50 of the Tet strain having ERG11 gene for Dox
Source text: (§1) Tetracycline transcriptional repression strains (Tet strains), were each prepared by inserting Tet-Off promoter into a site upstream of each of the genes of Candida glabrata, in accordance with the method described in Ueno K, Uno J, Nakayama H, Sasamoto K, Mikami Y, Chibana H. Development of a highly efficient gene targeting system induced by transient repression of YKU80 expression in Candida glabrata. Eukaryot Cell. 2007; 6: 1239-1247.
SD medium (6.7 g/L yeast nitrogen base, 2% glucose) (100 μL) was added dropwise to a 96-well cell culture plate. To the plate, doxycycline (Dox) serially diluted was added, and then, the Tet strain prepared in the step (1) was inoculated. The strain was cultured at 30° C. for 20 hours and turbidity was measured at CD 600. The concentration at which the turbidity of the Tet strain decreased, by addition of Dox, to about 50% of that in the case where culture was carried out in the absence of Dox was specified as IC50. Herein, for example, IC50 or the Tet strain having ERG11 gene as a candidate target gene for Dox was 1 μM.

[2] = test system: Tet strain having ERG1 gene as a candidate target gene; test: as above; settings: Nakaseomyces glabratus, 20 h, read-out: IC50 of the Tet strain having ERG1 gene for Dox
Source text: as §1
SD medium (6.7 g/L yeast nitrogen base, 2% glucose) (100 μL) was added dropwise to a 96-well cell culture plate. To the plate, doxycycline (Dox) serially diluted was added and each of the Tet strains prepared in Example 1 (1) was inoculated. The strains were each cultured at 30° C. for 20 hours and turbidity was measured at OD 600. The concentration at which the turbidity of the Tet strain decreased, by addition of Dox, to about 50% of that in the case where culture was carried out in the absence of Dox was specified as IC50. Herein, for example, IC50 of the Tet strain having ERG1 gene as a candidate target gene for Dox was 0.5 LM.

[3] = test system: Tet strain having ERG1 gene as a candidate target gene; test: Synergy index of Tet strains cultured with Dox and terbinafine (target gene identification); type: cell-based, Candida glabrata; settings: Example 5, FIG. 6: Dox ½ times of IC50 (0.25 μM) and 12 μM Ter; compared to other Tet strains
Description: The synergy indexes were calculated in substantially the same manner as in the method of Example 1 (4) except that the turbidity of the culture carried out in the presence of Dox and 12 μM Ter, the turbidity of the culture carried out in the presence of Dox of the same concentration, and the turbidity of the culture carried out in the presence of Ter of the same concentration for each Tet strain were used.

| Compound | pIC50 [1] | pIC50 [2] | Synergy index =(A+B)/2C [3] |
| --- | --- | --- | --- |
| C[C@H]1c2cccc(O)c2C(=O)C2=C(O)[C@]3(O)C(=O)C(C(N)=O)=C(O)[C@@H](N(C)C)[C@@H]3[C@@H](O)[C@@H]21 [doxycycline] | 6.00 | 6.30 |  |
| CN(C/C=C/C#CC(C)(C)C)Cc1cccc2ccccc12 [terbinafine] |  |  | significantly high |
